The whole screen tested about 410,000 compounds, of which about 7,200 (1.8%) were called active. Inconclusive results, whose numbers are uncertain, are shown with a selection of clear calls. Calls come from the whole dose curve; as a rule, active = well fitted activation curve with a large enough effect; inconclusive = small, poorly fitted or top-dose-only effect, or another doubt; inactive = no such curve, though single readings can be large or run the other way. Potencies of inconclusive entries are left out as doubtful fits.
Test: qHTS of TDP-43 Inhibitors; note: nearly all actives have a fitted effect of over 50% in size; for growth rescue (activation): % of control where 0% means no effect
Settings: TDP-43 expressing yeast growth rescue, BacTiter-Glo, 24 h; growth rescue (activation): at 46.1 µM (top of the series) unless noted
In short: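 Cell-based yeast growth screen: TDP-43 expression induced in galactose, inoculum OD600=0.02 after raffinose pregrowth to mid-log. Read-out BacTiter-Glo luminescence at 24 hr, 30 deg C; inhibition of toxicity seen as signal increase.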
Potency is the fitted concentration of half-maximal effect; tags give direction and shape of the fitted curve.

SMILES | Potency | growth rescue (activation)
Nc1nc(-c2ccccc2)nc2sc3c(c12)CCCC3 | inconclusive [activator, full curve, poor fit] | –
CC1CCN(C(=O)CCNS(=O)(=O)c2ccc(Br)cc2)CC1 | inactive | –
CCOC(=O)c1c(NC(=S)N2CCN(C)CC2)sc(C)c1-c1ccccc1 | inconclusive [activator, single point] | –
Cc1ccccc1Cn1ccc(-c2ccc3c(c2)OCO3)n1 | active: 17.8 µM | –
Cc1ccc(NC(=O)CN(CCc2ccccc2)S(C)(=O)=O)cc1 | inconclusive [activator, single point] | –
C[C@H](CCC(=O)O)[C@H]1CC[C@H]2[C@@H]3CC[C@@H]4C[C@H](O)CC[C@]4(C)[C@H]3C[C@H](O)[C@]12C | inconclusive [activator, single point] | –
O=C(Nc1cccc(OC(F)(F)F)c1)C1Cc2c(-c3ccc(Cl)cc3)ccnc2O1 (stereo not given) | inactive | –
Fc1cccc(-n2ncc3c2ncn2nc(-c4ccccc4Cl)nc32)c1 | inconclusive [activator, full curve] | –
O=C(O)CCCC(=O)Nc1ccc(Cl)c(Cl)c1 | inactive | –
O=C(COc1ccccc1)Nc1cccc(-c2cn3cccnc3n2)c1 | inconclusive [activator, full curve, poor fit] | –
Cc1cccc(N2CCN(C(=O)CCn3c(=O)c4cccn4c4cccnc43)CC2)c1C | inconclusive [activator, partial curve] | –
CC1(C)ON=C(c2ccc(C(F)(F)F)cc2)NC1=O | inconclusive [activator, partial curve] | –
O=C(O)C(=Cc1ccccc1)Cc1ccccc1 | inconclusive [activator, single point] | –
O=C(O)c1ccc(N/N=C/C2=Cc3ccccc3OC2)cc1 | inconclusive [activator, partial curve] | –
Cc1ccc(S(=O)(=O)NCC(=O)N2CCOCCOCCOCCOCC2)cc1 | inactive | –
COc1ccc(CCN2CC(C(=O)OCC(=O)Nc3c(C)nn(-c4ccccc4)c3C)CC2=O)cc1OC (stereo not given) | inactive | –
Cc1cccc(C2=NN(c3ccc(Br)cc3)[C@@H](C(=O)N3CCOC3=O)[C@@H]2c2ccc(Cl)cc2)c1 | inactive | –
O=C1C2=C(NC(=S)NC2c2ccc(Cl)cc2)NC(c2ccc(Cl)cc2)N1c1ccc(Cl)cc1 (stereo not given) | inconclusive [activator, single point] | –
COc1ccccc1-n1c(-c2ccc(C)cc2)cn2c3c(=O)n(C)c(=O)n(C)c3nc12 | inactive | –
S=C(Nc1cccc(Cl)c1)Nc1ccc2cn[nH]c2c1 | inconclusive [activator, single point] | –
COc1ccc(S(=O)(=O)c2cc(NS(=O)(=O)c3ccc(Cl)cc3)c(C)c(C)c2O)cc1 | inactive | –
COc1ccc(NC(=O)c2cnc[nH]2)cc1 | inactive | –
NS(=O)(=O)c1ccc(CCNC(=O)C2CCN(S(=O)(=O)c3ccccc3)CC2)cc1 | – | inactive: 12.9% [at 9.22 µM]

SMILES | Potency | growth rescue (activation)
O=C(OCn1ncc(Br)c(Br)c1=O)c1ccccc1Cl | active: 6.31 µM | –
COCCNc1nc(-c2cc3ccccc3o2)cs1 | inconclusive [activator, partial curve] | –
Cc1nc(-c2ccc(S(=O)(=O)Nc3ccc(C)c(N(C)C)c3)cc2)co1 | inconclusive [activator, partial curve, poor fit] | –
CCCCOC(=O)c1ccc(N/C(=N\S(=O)(=O)c2ccccc2)c2ccccc2)cc1 | inconclusive [activator, single point] | –
O=C(Cc1c(F)cccc1Cl)Nc1nc2ccccc2s1 | inconclusive [activator, single point] | –
CCCCCc1ccc(CC(=O)N2CCOCC2)cc1 | inconclusive [activator, partial curve] | –
O=C(c1ccc([N+](=O)[O-])cc1)N1c2ncnn2C2(CCCCC2)[C@@H]2CCCC[C@@H]21 | inactive | –
CCOC(=O)C(=O)Nc1nnc(Cc2ccc(OC)c(OC)c2)s1 | inactive | –
COc1ccc(Cn2nc(C)n(N(C)c3ncc(C(F)(F)F)cc3Cl)c2=O)cc1 | inconclusive [activator, partial curve] | –
COc1ccc(CCNc2cc(C)nc3c(-c4ccccc4)cnn23)cc1OC | inactive | –
CC(C)NC(=S)N=Nc1c(O)[nH]c2ccc(C(C)C)cc12 | inconclusive [activator, partial curve] | –
CCc1cc(Cn2nc(-c3ccccc3)cc2C(=O)NCC2CC2)on1 | inconclusive [activator, partial curve] | –
CC(=O)Nc1ccc(-c2ccnc3c2CC(C)(C(=O)Nc2ccc(Cl)cc2)O3)cc1 (stereo not given) | inconclusive [activator, single point] | –
CC(C)(C)NC(=S)NCc1ccc2c(c1)OCO2 | inconclusive [activator, partial curve] | –
N#CC(=Cc1ccc(-c2ccccc2)cc1)C(=O)c1ccccc1 | inconclusive [activator, full curve] | –
CN(C)c1ccc(/C=N/n2ncc3ccccc32)cc1 | inconclusive [activator, single point] | –
COc1ccc(CNC(=O)c2ccc(-c3nc(CS(=O)c4ccc(C)cc4)c(C)o3)cc2)cc1 (stereo not given) | inactive | –
Clc1ccccc1-c1nnc2sc(C3COc4ccccc4O3)nn12 (stereo not given) | inconclusive [activator, single point] | –
Cc1ccc(CN2CC(C(=O)N3CCN(c4ccccc4Cl)CC3)CC2=O)cc1 (stereo not given) | active: 35.5 µM | –
Nc1nnc2cc(Br)ccc2n1 | inconclusive [activator, single point] | –
CC(C)CCN1C(=O)c2ccc(C(=O)NCc3ccco3)cc2C1=O | inconclusive [activator, partial curve] | –
CCOC(=O)N1CCN(C(=O)c2cc(COc3ccc(F)cc3F)on2)CC1 | inconclusive [activator, single point] | –

Source: PubChem BioAssay AID652104 (National Center for Advancing Translational Sciences (NCATS), 2013)
